Source: PubChem BioAssay (NCI)
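Cells were grown in 96-well plates and exposed to each compound for 48 hours at five concentrations; endpoints were interpolated linearly between bracketing concentrations, or set to the highest concentration if not reached. GI50: concentration for 50% inhibition of growth.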 Some entries of the source have several records that differ or are many. The list is limited to them. An entry can have further records. Records of one sample usually come from different ranges of test concentrations, which the source does not state; some values may only mark the edge of a range.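 At the TGI there is no net growth.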

Experiments:
Test in all cases: inhibition of tumour cell growth, NCI panel, 48 h
OVCAR-4 ovarian = test system: OVCAR-4 ovarian
RXF 393 renal = test system: RXF 393 renal
EKVX NSCLC = test system: EKVX NSCLC
SK-MEL-5 melanoma = test system: SK-MEL-5 melanoma
NCI-H226 lung = test system: NCI-H226 lung
SR leukemia = test system: SR leukemia
A498 renal = test system: A498 renal

## COc1ccc2c(c1)NC(=O)CN2c1nc(NC2CC2)nc2ccccc12
OVCAR-4 ovarian
  GI50: 2.23 nM and 920 nM
RXF 393 renal
  TGI: 6.41 nM and 12.9 µM
EKVX NSCLC
  GI50: 2.1 nM and 81.8 nM
SK-MEL-5 melanoma
  TGI: 3.01 nM and 1.08 µM
NCI-H226 lung
  GI50: 4.56 nM and 1.33 µM
SR leukemia
  TGI: 1.29 nM and > 100 µM
A498 renal
  TGI: 8.22 nM and 10.6 µM
